Test results published in US20220047715A1 (Johns Hopkins, published 2022).

Molecular target: CD80 presented on compliable micropillars
Experiment: cell-based or functional assay

B1: Cytotoxic T-Lymphocyte-Associated Antigen-4 (CTLA4), endogenous, on human MCF10A and MDA-MB231 cells (receptor)
chain: not shown
- stress on micropillars, CTLA4-CD80 bond against integrin-fibronectin bond: 4 fold
- stress on micropillars, cancer cells against normal cells: ~2 fold
